# Measurements reported in the supplement of paper PMC8728848.
# This is one part of the list.
# B1: Epa15 (Candida glabrata) (protein)
# chain: MGSSHHHHHHSSGLVPRGSHMASDPTTFPLGCSPEFTKTKKGLSMELYRYDYLPPGSYPCWDSAYLNPSYPRTGYKAKKLIATVDGVSGDINFKFNPKFGCKAIPDYLPSNFNYHEPITITNFTMILYGYFMPKTTAFHTFYVTADDLLFMNFGAGNAFDCCRREETADKFGNYAAYSVWGKKSLKNELTVYLHTGVYYPIRLFYNNRDYIAQLDIRFKTEHSNAIITNFTDYFYSVDDSSLGCPGLI
# Assays:
# Experiment in all cases: glycan array binding signal (z-score within array); higher = stronger binding
# Details in all cases: glycan notation: IUPAC condensed, linker removed
# Fuc(a1-2)Gal = molecular target: Fuc(a1-2)Gal
# How it was run: (§1)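 Glycan array data were curated from 3228 arrays in the Consortium for Functional Glycomics database and kept only where the protein sequence was available. Glycan names were converted to IUPAC-condensed notation, and columns mapping to the same glycan were averaged. The binding signal is a within-array Z-score, averaged across arrays of the same protein sequence at different concentrations or buffers and across linkers. Negative Z-scores can be read as non-binding.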
# Fuc(a1-2)Gal(b1-3)GalNAc = molecular target: Fuc(a1-2)Gal(b1-3)GalNAc
# How it was run: as §1
# [1] = molecular target: Fuc(a1-2)Gal(b1-3)GalNAc(a1-3)[Fuc(a1-2)]Gal(b1-4)Glc
# How it was run: as §1
# [2] = molecular target: Fuc(a1-2)Gal(b1-3)GalNAc(a1-3)[Fuc(a1-2)]Gal(b1-4)GlcNAc
# How it was run: as §1
# [3] = molecular target: Fuc(a1-2)Gal(b1-3)GalNAc(b1-3)Gal
# How it was run: as §1
# [4] = molecular target: Fuc(a1-2)Gal(b1-3)GalNAc(b1-3)Gal(a1-4)Gal(b1-4)Glc
# How it was run: as §1
# [5] = molecular target: Fuc(a1-2)Gal(b1-3)GalNAc(b1-3)Gal(b1-4)Glc
# How it was run: as §1
# [6] = molecular target: Fuc(a1-2)Gal(b1-3)GalNAc(b1-4)[Neu5Ac(a2-3)]Gal(b1-4)Glc
# How it was run: as §1
# Fuc(a1-2)Gal(b1-3)GlcNAc = molecular target: Fuc(a1-2)Gal(b1-3)GlcNAc
# How it was run: as §1
# [7] = molecular target: Fuc(a1-2)Gal(b1-3)GlcNAc(b1-2)Man(a1-3)[Fuc(a1-2)Gal(b1-3)GlcNAc(b1-2)Man(a1-6)]Man(b1-4)GlcNAc(b1-4)GlcNAc
# How it was run: as §1
# [8] = molecular target: Fuc(a1-2)Gal(b1-3)GlcNAc(b1-2)Man(a1-3)[Fuc(a1-2)Gal(b1-3)GlcNAc(b1-2)Man(a1-6)]Man(b1-4)GlcNAc(b1-4)[Fuc(a1-6)]GlcNAc
# How it was run: as §1
# [9] = molecular target: Fuc(a1-2)Gal(b1-3)GlcNAc(b1-3)Gal(b1-4)Glc
# How it was run: as §1
# [10] = molecular target: Fuc(a1-2)Gal(b1-3)GlcNAc(b1-3)GalNAc
# How it was run: as §1
# [11] = molecular target: Fuc(a1-2)Gal(b1-3)GlcNAc(b1-3)[Fuc(a1-2)Gal(b1-3)GlcNAc(b1-6)]GalNAc
# How it was run: as §1
# [12] = molecular target: Fuc(a1-2)Gal(b1-3)GlcNAc(b1-3)[Gal(b1-4)GlcNAc(b1-6)]Gal(b1-4)Glc
# How it was run: as §1
# [13] = molecular target: Fuc(a1-2)Gal(b1-3)GlcNAc(b1-3)[Neu5Ac(a2-6)Gal(b1-4)GlcNAc(b1-6)]Gal(b1-4)Glc
# How it was run: as §1
# [14] = molecular target: Fuc(a1-2)Gal(b1-3)GlcNAc6S
# How it was run: as §1
# [15] = molecular target: Fuc(a1-2)Gal(b1-3)[Fuc(a1-4)]GlcNAc
# How it was run: as §1
# [16] = molecular target: Fuc(a1-2)Gal(b1-3)[Fuc(a1-4)]GlcNAc(b1-2)Man(a1-3)[Fuc(a1-2)Gal(b1-3)[Fuc(a1-4)]GlcNAc(b1-2)Man(a1-3)]Man(b1-4)GlcNAc(b1-4)GlcNAc
# How it was run: as §1
# [17] = molecular target: Fuc(a1-2)Gal(b1-3)[Fuc(a1-4)]GlcNAc(b1-2)Man(a1-3)[Fuc(a1-2)Gal(b1-3)[Fuc(a1-4)]GlcNAc(b1-2)Man(a1-6)]Man(b1-4)GlcNAc(b1-4)[Fuc(a1-6)]GlcNAc(b1-4)[Fuc(a1-6)]GlcNAc
# How it was run: as §1
# [18] = molecular target: Fuc(a1-2)Gal(b1-3)[Fuc(a1-4)]GlcNAc(b1-3)[Fuc(a1-3)[Gal(b1-4)]GlcNAc(b1-6)]Gal(b1-4)Glc
# How it was run: as §1
# [19] = molecular target: Fuc(a1-2)Gal(b1-3)[Fuc(a1-4)]GlcNAc(b1-3)[Gal(b1-4)GlcNAc(b1-6)]Gal(b1-4)Glc
# How it was run: as §1
# [20] = molecular target: Fuc(a1-2)Gal(b1-4)Fuc(a1-3)]GlcNAc(b1-2)Man(a1-3)[Fuc(a1-2)Gal(b1-4)[Fuc(a1-3)]GlcNAc(b1-2)Man(a1-6)]Man(b1-4)GlcNAc(b1-4)GlcNAc
# How it was run: as §1
# Fuc(a1-2)Gal(b1-4)Glc = molecular target: Fuc(a1-2)Gal(b1-4)Glc
# How it was run: as §1
# Fuc(a1-2)Gal(b1-4)Glc6S = molecular target: Fuc(a1-2)Gal(b1-4)Glc6S
# How it was run: as §1
# Fuc(a1-2)Gal(b1-4)GlcNAc = molecular target: Fuc(a1-2)Gal(b1-4)GlcNAc
# How it was run: as §1
# [21] = molecular target: Fuc(a1-2)Gal(b1-4)GlcNAc(b1-2)Man
# How it was run: as §1
# [22] = molecular target: Fuc(a1-2)Gal(b1-4)GlcNAc(b1-2)Man(a1-3)[Fuc(a1-2)Gal(b1-4)GlcNAc(b1-2)Man(a1-6)]Man(b1-4)GlcNAc(b1-4)GlcNAc
# How it was run: as §1
# [23] = molecular target: Fuc(a1-2)Gal(b1-4)GlcNAc(b1-2)Man(a1-3)[Fuc(a1-2)Gal(b1-4)GlcNAc(b1-2)Man(a1-6)]Man(b1-4)GlcNAc(b1-4)[Fuc(a1-6)]GlcNAc
# How it was run: as §1
# [24] = molecular target: Fuc(a1-2)Gal(b1-4)GlcNAc(b1-2)[Fuc(a1-2)Gal(b1-4)GlcNAc(b1-4)]Man(a1-3)[Fuc(a1-2)Gal(b1-4)GlcNAc(b1-2)Man(a1-6)]Man(b1-4)GlcNAc(b1-4)GlcNAc
# How it was run: as §1
binder,measurement,setting,value
B1,glycan array binding signal (z-score),Fuc(a1-2)Gal,-0.383
same,glycan array binding signal (z-score),Fuc(a1-2)Gal(b1-3)GalNAc,-0.333
same,glycan array binding signal (z-score),[1],-0.385
same,glycan array binding signal (z-score),[2],-0.417
same,glycan array binding signal (z-score),[3],-0.095
same,glycan array binding signal (z-score),[4],-0.443
same,glycan array binding signal (z-score),[5],-0.272
same,glycan array binding signal (z-score),[6],-0.249
same,glycan array binding signal (z-score),Fuc(a1-2)Gal(b1-3)GlcNAc,-0.531
same,glycan array binding signal (z-score),[7],0.223
same,glycan array binding signal (z-score),[8],-0.142
same,glycan array binding signal (z-score),[9],-0.526
same,glycan array binding signal (z-score),[10],-0.441
same,glycan array binding signal (z-score),[11],0.29
same,glycan array binding signal (z-score),[12],-0.179
same,glycan array binding signal (z-score),[13],-0.332
same,glycan array binding signal (z-score),[14],-0.366
same,glycan array binding signal (z-score),[15],-0.446
same,glycan array binding signal (z-score),[16],-0.054
same,glycan array binding signal (z-score),[17],-0.535
same,glycan array binding signal (z-score),[18],-0.504
same,glycan array binding signal (z-score),[19],-0.547
same,glycan array binding signal (z-score),[20],0.389
same,glycan array binding signal (z-score),Fuc(a1-2)Gal(b1-4)Glc,-0.401
same,glycan array binding signal (z-score),Fuc(a1-2)Gal(b1-4)Glc6S,-0.328
same,glycan array binding signal (z-score),Fuc(a1-2)Gal(b1-4)GlcNAc,-0.446
same,glycan array binding signal (z-score),[21],-0.5
same,glycan array binding signal (z-score),[22],-0.115
same,glycan array binding signal (z-score),[23],0.381
same,glycan array binding signal (z-score),[24],-0.548
